Among the data in paper PMC12820563, “FoxP3 forms a head-to-head dimer in vivo and stabilizes its multimerization on adjacent microsatellites” are binding signal values, retold here.

This is one part of the list.

The experiment deals with T1, MBP-FoxP1dN (Mus musculus, UniProt P58462 326-579).
T1 sequence: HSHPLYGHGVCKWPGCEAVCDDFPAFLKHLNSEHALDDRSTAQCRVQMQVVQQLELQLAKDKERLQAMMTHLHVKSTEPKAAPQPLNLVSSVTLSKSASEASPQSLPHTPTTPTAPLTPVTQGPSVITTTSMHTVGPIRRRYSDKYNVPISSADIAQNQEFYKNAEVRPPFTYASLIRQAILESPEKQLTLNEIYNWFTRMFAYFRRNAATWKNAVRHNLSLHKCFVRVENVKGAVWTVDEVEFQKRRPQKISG
In words: PD-seq (MBP pull-down with sequencing); 20 mM Tris-HCl pH 7.5, 100 mM NaCl, 1.5 mM MgCl2, 0.4 uM protein, 0.1 uM dsDNA library, 30 min, room temperature, amylose pull-down; high values mean tight binding. The note with it: protein: recombinant; tags: His6-MBP; chain copies: 2; dsDNA, one strand shown. The essentials: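 A degenerate double-stranded DNA library, filled in with Klenow, was added at 0.1 µM to 0.4 µM His6-MBP-tagged mouse FoxP3 or FoxP1 fragment lacking the N-terminus, expressed in E. coli. Incubation lasted 30 min at room temperature in Tris pH 7.5 buffer with NaCl and MgCl2, after which complexes were collected on amylose resin, washed three times, digested with proteinase K to free the DNA, barcoded by PCR and sequenced by Illumina. Binding is the pooled-replicate reads-per-million enrichment of pull-down over input.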
“GATGATTGTTCTCCCAGCTGATGAATTGTATGATTCGAGTAAACAAATTTTCCTAATCTTTCTGTTCAAGCGCCATCTAC”: the binding signal was 1.1 RPM ratio (pull-down/input).

For “GATGATTGTTCTCCCAGCTGATGAATTCCGAAAGTCGAGTAAACAAATTTTCCTAATCTTTCTGTTCAAGCGCCATCTAC”, the binding signal is 0.842 RPM ratio (pull-down/input).

Turning to “GATGATTGTTCTCCCAGCTGATGAATTCCACTTATCGAGTAAACAAATTTTCCTAATCTTTCTGTTCAAGCGCCATCTAC”, the binding signal is 0.973 RPM ratio (pull-down/input).

For the sequence “GATGATTGTTCTCCCAGCTGATGAATTGGTCTGGTCGAGTAAACAAATTTTCCTAATCTTTCTGTTCAAGCGCCATCTAC”, the binding signal is 0.807 RPM ratio (pull-down/input).

For the sequence “GATGATTGTTCTCCCAGCTGATGAATTGCGTTCATCGAGTAAACAAATTTTCCTAATCTTTCTGTTCAAGCGCCATCTAC”, the binding signal was 1.14 RPM ratio (pull-down/input).

Turning to “GATGATTGTTCTCCCAGCTGATGAATTAGTTGCATCGAGTAAACAAATTTTCCTAATCTTTCTGTTCAAGCGCCATCTAC”, the binding signal was 1.65 RPM ratio (pull-down/input).

Take “GATGATTGTTCTCCCAGCTGATGAATTTTCCTGATCGAGTAAACAAATTTTCCTAATCTTTCTGTTCAAGCGCCATCTAC”: the binding signal is 0.846 RPM ratio (pull-down/input).

Consider “GATGATTGTTCTCCCAGCTGATGAATTACATTCATCGAGTAAACAAATTTTCCTAATCTTTCTGTTCAAGCGCCATCTAC”, for which the binding signal was 1.17 RPM ratio (pull-down/input).

Turning to “GATGATTGTTCTCCCAGCTGATGAATTATGCACTTCGAGTAAACAAATTTTCCTAATCTTTCTGTTCAAGCGCCATCTAC”, the binding signal was 1.12 RPM ratio (pull-down/input).

Regarding “GATGATTGTTCTCCCAGCTGATGAATTCAATTGGTCGAGTAAACAAATTTTCCTAATCTTTCTGTTCAAGCGCCATCTAC”, the binding signal was 0.898 RPM ratio (pull-down/input).

Regarding “GATGATTGTTCTCCCAGCTGATGAATTGCACACGTCGAGTAAACAAATTTTCCTAATCTTTCTGTTCAAGCGCCATCTAC”, the binding signal was 1.05 RPM ratio (pull-down/input).

With “GATGATTGTTCTCCCAGCTGATGAATTTCCAGGTTCGAGTAAACAAATTTTCCTAATCTTTCTGTTCAAGCGCCATCTAC”, the binding signal was 0.791 RPM ratio (pull-down/input).

For “GATGATTGTTCTCCCAGCTGATGAATTAGTCTAGTCGAGTAAACAAATTTTCCTAATCTTTCTGTTCAAGCGCCATCTAC”, the binding signal was 0.871 RPM ratio (pull-down/input).

In the case of “GATGATTGTTCTCCCAGCTGATGAATTTGAGGGCTCGAGTAAACAAATTTTCCTAATCTTTCTGTTCAAGCGCCATCTAC”, the binding signal was 0.723 RPM ratio (pull-down/input).

“GATGATTGTTCTCCCAGCTGATGAATTAACCTACTCGAGTAAACAAATTTTCCTAATCTTTCTGTTCAAGCGCCATCTAC”: the binding signal is 0.827 RPM ratio (pull-down/input).

Consider “GATGATTGTTCTCCCAGCTGATGAATTACAATCATCGAGTAAACAAATTTTCCTAATCTTTCTGTTCAAGCGCCATCTAC”, for which the binding signal is 1.57 RPM ratio (pull-down/input).

For “GATGATTGTTCTCCCAGCTGATGAATTCTGGACTTCGAGTAAACAAATTTTCCTAATCTTTCTGTTCAAGCGCCATCTAC”, the binding signal is 0.79 RPM ratio (pull-down/input).

As to “GATGATTGTTCTCCCAGCTGATGAATTCCCCGAATCGAGTAAACAAATTTTCCTAATCTTTCTGTTCAAGCGCCATCTAC”, the binding signal was 0.9 RPM ratio (pull-down/input).

For “GATGATTGTTCTCCCAGCTGATGAATTCTACACATCGAGTAAACAAATTTTCCTAATCTTTCTGTTCAAGCGCCATCTAC”, the binding signal was 1.06 RPM ratio (pull-down/input).

On to “GATGATTGTTCTCCCAGCTGATGAATTGGAAAGATCGAGTAAACAAATTTTCCTAATCTTTCTGTTCAAGCGCCATCTAC”, for which the binding signal is 0.916 RPM ratio (pull-down/input).

Consider “GATGATTGTTCTCCCAGCTGATGAATTTTGGATGTCGAGTAAACAAATTTTCCTAATCTTTCTGTTCAAGCGCCATCTAC”, for which the binding signal was 0.849 RPM ratio (pull-down/input).

In the case of “GATGATTGTTCTCCCAGCTGATGAATTAGTCGGATCGAGTAAACAAATTTTCCTAATCTTTCTGTTCAAGCGCCATCTAC”, the binding signal was 0.912 RPM ratio (pull-down/input).

For “GATGATTGTTCTCCCAGCTGATGAATTTTGTGTGTCGAGTAAACAAATTTTCCTAATCTTTCTGTTCAAGCGCCATCTAC”, the binding signal is 1.48 RPM ratio (pull-down/input).

For the sequence “GATGATTGTTCTCCCAGCTGATGAATTCGCGGCCTCGAGTAAACAAATTTTCCTAATCTTTCTGTTCAAGCGCCATCTAC”, the binding signal is 0.811 RPM ratio (pull-down/input).

“GATGATTGTTCTCCCAGCTGATGAATTCCATCCTTCGAGTAAACAAATTTTCCTAATCTTTCTGTTCAAGCGCCATCTAC”: the binding signal was 0.855 RPM ratio (pull-down/input).

Regarding “GATGATTGTTCTCCCAGCTGATGAATTGCAGAGTTCGAGTAAACAAATTTTCCTAATCTTTCTGTTCAAGCGCCATCTAC”, the binding signal was 1.09 RPM ratio (pull-down/input).

For “GATGATTGTTCTCCCAGCTGATGAATTGTTGTGTTCGAGTAAACAAATTTTCCTAATCTTTCTGTTCAAGCGCCATCTAC”, the binding signal was 2.57 RPM ratio (pull-down/input).

With “GATGATTGTTCTCCCAGCTGATGAATTAGGGTCATCGAGTAAACAAATTTTCCTAATCTTTCTGTTCAAGCGCCATCTAC”, the binding signal is 0.943 RPM ratio (pull-down/input).

Consider “GATGATTGTTCTCCCAGCTGATGAATTACCCGAGTCGAGTAAACAAATTTTCCTAATCTTTCTGTTCAAGCGCCATCTAC”, for which the binding signal is 0.854 RPM ratio (pull-down/input).

As to “GATGATTGTTCTCCCAGCTGATGAATTCCTGGTCTCGAGTAAACAAATTTTCCTAATCTTTCTGTTCAAGCGCCATCTAC”, the binding signal was 0.755 RPM ratio (pull-down/input).

For the sequence “GATGATTGTTCTCCCAGCTGATGAATTATTACATTCGAGTAAACAAATTTTCCTAATCTTTCTGTTCAAGCGCCATCTAC”, the binding signal was 1.28 RPM ratio (pull-down/input).
